From ChEMBL document CHEMBL4888484, “Replenishing the malaria drug discovery pipeline: Screening and hit evaluation of the MMV Hit Generation Library 1 (HGL1) against asexual blood stage Plasmodium falciparum ,using a nano luciferase reporter read-out” (2022)
Screen size: about 150,000 compounds; about 540 (0.36%) showed an effect of 50% or more. The list shows a part of the results.

Test system: Plasmodium falciparum
Experiment: Primary screen in NF54 nanoGlo assay, in single point, at 2uM, 72h; a lower Z score goes with more inhibition
Type: functional, Erythrocyte
Details: timepoint 72 hour

Structure (SMILES) | % Inhibition | Z score
O=C(N[C@H]1CCCn2ncnc21)c1c(O)cc(Cl)cc1Cl | 7% | -0.69
CCN1C[C@@H](CNc2ccnc3c(C)c(C)ccc23)CC1=O | -11% | 1.57
COc1cccc(CNC(=O)N2C[C@H]3CCC[C@@H](OC)[C@H]3C2)c1 | 3% | -0.3
COc1ccc(F)c(NC(=O)C(=O)N(C)[C@@H](C)C2(C)CC2)c1 | -13% | 1.09
COc1cc(C[C@@]2(CCC(=O)NCC(C)(C)N3CCOCC3)CCC(=O)N2)ccc1F | -1% | 0.15
CC(C)[C@H](OC(=O)c1cnn(C(C)C)c1)c1nccn1C | -10% | 1.45
COc1cccc([C@H]2CCN(Cc3cccn3-c3cccnc3)C[C@@H]2O)c1 | -5% | 0.56
c1ccc(-c2noc(-c3nccn3CCc3ccco3)n2)cc1 | -12% | 1.16
COCCOc1cc(Cn2cnc3cc(F)c(F)cc32)ccn1 | -6% | 0.54
COCCCN(Cc1ccncc1C#N)[C@H]1CCS(=O)(=O)C1 | -2% | 0.22
CCc1nc(C)nc(N2CCN(C(=O)c3ccco3)CC2)c1Cc1ccc(Cl)cc1 | 4% | -0.78
CN(C)C(=O)NCC(=O)N1CCC(c2ncon2)CC1 | -9% | 1.13
CCOc1ccc2nc(NC(=O)c3coc(NC(=O)c4cc(C)on4)n3)sc2c1 | -1% | 0.17
O=C(c1ccc(-c2ccccc2)[nH]c1=O)N1Cc2ccccc2[C@@H](O)C1 | -17% | 2
C[C@@H](Cn1cncn1)NC(=O)NC1CC(c2cccc(Cl)c2)C1 (stereo partly drawn) | -8% | 1.42
CC(=O)N1CCN(C(=O)CN(CC(F)(F)F)C2CCC2)CC1 | -3% | 0.48
Cc1nc2nnnn2c(C)c1Cc1ccc(Cl)cc1 | -6% | 0.65
CCOC(=O)N1CCN(C(=O)c2cc(-c3cccc(OC)c3)n3nc(-c4ccccc4)cc3n2)CC1 | 1% | -0.08
CCn1ccc(C(=O)NCc2cccnc2)cc1=O | 8% | -0.81
Cc1cc(N2CCC([C@H](C)N3CCN(C)CC3)CC2)n2nc(C)cc2n1 | 13% | -1.69
O=C(CCc1ccc2c(c1)OCCO2)N1CCC(c2nc3ccccc3o2)CC1 | -14% | 2.13

Structure (SMILES) | % Inhibition | Z score
Cc1ccc(CNC(=O)c2ccc(C)c(-n3nnc4cccnc43)c2)cc1 | -5% | 0.94
COc1ccc(C2N(c3ccccc3)OC3C(=O)N(c4ccccc4)C(=O)C32c2ccccc2)cc1 (stereo not drawn) | -14% | 1.52
Cn1c(=O)sc2cc(NC(=O)c3ccccc3Br)ccc21 | -8% | 1.53
COc1ccc(/C=C/CN2C[C@@H](C(=O)O)C[C@@H](C(=O)NC3CC3)C2)cc1 | -5% | 0.95
CCN(C(=O)c1ccccc1O)[C@@H](C(=O)Nc1c(C)cccc1C)c1ccc(Cl)cc1Cl | 34% | -3.83
Cc1ccsc1CN(Cc1ccccc1)C(=O)CN(CC(C)C)S(=O)(=O)c1cccc2cccnc12 | -11% | 1.2
CCOCCOCC(=O)Nc1ccc(OC(F)(F)F)cc1 | -14% | 1.48
CN1CCN(C)[C@@H](CNCc2ccc(Oc3ccccc3)o2)C1 | -5% | 0.73
CC(C)n1nccc1S(=O)(=O)N(C)CCN1CCCC1 | 5% | -0.65
CCCS(=O)(=O)NC(=O)CCc1ccc(Br)cc1 | -8% | 0.71
COc1cccc(CNC(=O)CC(C)(C)CC2=Nc3ccccc3S(=O)(=O)N2)c1 | 12% | -1.4
CNC(=O)NC(=O)C(C)N1CCCC1CC(O)c1ccc(F)cc1 (stereo not drawn) | -14% | 2.65
COCC(=O)Nc1cc(C(=O)N2CCN(C(C)=O)CC2)c2c(c1)ncn2Cc1ccc(F)cc1 | 21% | -2.66
N#Cc1nc(COc2cccc(Cl)c2)oc1NC[C@H]1CCCO1 | 35% | -0.86
Cc1cccc(OCC(=O)N2CCC[C@@H]2C(=O)NCCc2csc(-c3ccccc3)n2)c1 | 0% | 0.06
Cc1oc(C(C)C)cc1C(=O)[C@H](C#N)C(=O)NCc1ccccc1 | 10% | -1.61
O=C(O)[C@H]1CCCCN1C(=O)CCCc1c[nH]c2ccccc12 | -6% | 0.86
Cn1ncc2c(N3CCCN(C4CC4)CC3)ncnc21 | 14% | -1.78
CC[C@H](C)[C@H](NC(=O)c1ccc(C(F)F)cc1F)C(=O)O | -13% | 1.3
Cc1ccc(S(=O)(=O)Nc2nc(C)c(NC(=O)Nc3ccccc3Cl)s2)cc1 | -10% | 1.32
CCC(NC(=O)c1cccc(OC)c1)C1c2cc(OC)c(OC)cc2CCN1Cc1ccccc1 (stereo not drawn) | 2% | -0.39

Structure (SMILES) | % Inhibition | Z score
O=C(O)C1CCC(Cc2ccc(O)cc2)N1 (stereo not drawn) | -8% | 1.64
O=C(COc1ccc(Cl)cc1Cl)N1CC=C[C@@H]1CO | -6% | 1.23
O=C(c1ccc2c(c1)OCO2)N1CCC[C@](CCc2ccccc2)(C(=O)O)C1 | -4% | 0.79
COc1cccc(NC(=O)c2c(C)sc3ncnc(N4CCCCCC4)c23)c1 | 1% | -0.1
CCOC(=O)c1nccn1CC(=O)Nc1c(CC)c(CC)nn1C | -7% | 0.89
Cc1cccc2c1N(C(=O)c1ccn3ccnc3c1)CC2 | -6% | 0.9
O=C(NCc1ccccc1)c1cc[n+](Cc2cccc(F)c2)cc1 | -7% | 0.72
CC(C)(C)OC(=O)N1C[C@@H]2CCCC[C@@]2(C(=O)NCCCOCC2CCOC2)C1 (stereo partly drawn) | -1% | 0.15
CC1(C)C[C@@H]1NC(=O)c1cc(Cl)cc(F)c1N | 3% | -0.44
COc1cc(N(C)CC[C@H]2CCCCO2)ncn1 | -4% | 0.58
COCCN(CCC(=O)NCc1ccc2c(c1)OCO2)C(=O)c1cc(-c2cc(C)ccc2C)on1 | -12% | 1.16
O=C(CCN1CCO[C@H](c2ccc(Cl)cc2)C1)Nc1ccc(N2CCOCC2)cc1 | -13% | 1.75
CCC(CC)Nc1ccn(CC(F)F)n1 | -11% | 2.08
CC(C)CCN1CC(=O)N2C(c3ccccc3)c3[nH]c4ccccc4c3C[C@H]2C1=O (stereo partly drawn) | -11% | 1.36
CC(C)[C@H](NC(=O)CC1=CCCCC1)C(=O)O | -12% | 1.13
CCn1ccnc(N2CC[C@@](O)(C(F)(F)F)C2)c1=O | -12% | 1.07
Cn1cccc1[C@H](CNS(=O)(=O)c1ccc(F)cc1)N1CCCCCC1 | 0% | -0.07
Cc1cc(C)c2c(c1)N(C(=O)Cc1cnccc1C)CCO2 | -7% | 0.88
COc1cccc(-c2nc3ccc(C(=O)N[C@@H](C)c4n[nH]c(C)n4)cc3o2)c1 | 4% | -0.7
CC(C)c1ncc(NC(=O)COCC2CC2)cn1 | 1% | -0.1
Cn1nc(-c2ccc(F)cc2)cc1C(=O)NCCc1nc2c(c(C(F)(F)F)n1)COCC2 | -24% | 4.51

Structure (SMILES) | % Inhibition | Z score
Cc1ccc(NC(=O)Cn2cnc3c(nnn3C)c2=O)cc1C | -11% | 1.65
CN(Cc1ccccc1NCc1cc2n(n1)CCCC2)C(=O)c1cccs1 | -7% | 0.7
CNC(=O)[C@H]1CCN(C(=O)c2cc(C)ccc2-n2cnnc2)C1 | 5% | -0.9
CNC(=O)C[C@H](C)N(C)Cc1ccc(C(=O)Nc2cnn(C)n2)cc1 | -10% | 1.84
CC(C)Cc1nc(C(=O)NC2(c3ncon3)CCOCC2)cs1 | -1% | 0.08
O=C(c1cncc(Br)c1)N1CC[C@H](Oc2cnsn2)C1 | -12% | 2.26
C[C@H]1CN(C(=O)C2(C#N)CCCCC2)CC(C)(C)O1 | -15% | 1.57
c1ccc2c(c1)CCN(C1CCN(c3ccc4ccccc4n3)CC1)C2 | -2% | 0.42
CCC(NCC(C)c1ccc(F)cc1)C(=O)N1CCOCC1 (stereo not drawn) | -13% | 1.81
Cc1ccc(CNC(=O)CN2CCN(c3nccn3C)CC2)cc1 | -10% | 1.69
CCN(C(=O)C1CC1c1cnn(C)c1)c1ccccc1 (stereo not drawn) | -46% | 5.44
O=S(=O)(N[C@@H](Cn1cnc2ccccc21)c1ccc(F)cc1)c1cc(F)c(F)cc1F | 37% | -4.73
O=C(NC1CC1)[C@@H]1CCCN1c1ccc2ccccc2n1 | -11% | 1.46
O=C(N[C@@]1(CO)CCOC1)c1ccc(F)c2ccncc12 | 0% | -0.09
CC1(C)NC(=O)N(CCN2CCCc3cccc(F)c32)C1=O | -4% | 0.5
O=C(NC1CCC(F)(F)CC1)c1cn[nH]c1 | -6% | 1.18
Cc1nccn1CCC1CCN(Cc2ccoc2)CC1 | 2% | -0.42
C[C@@H](C(N)=O)N1CCC(c2nc3cc(Cl)ccc3o2)CC1 | -3% | 0.44
CC(C)(C)c1ccc(C(=O)N2CCN(C(=O)Cn3cnnn3)CC2)s1 | -3% | 0.58
Cc1ccc(NC(=O)NC(C)COCC(F)(F)F)cc1NC(=O)NC(C)COCC(F)(F)F (stereo not drawn) | -7% | 1.27
O=C(CCn1cccn1)N[C@H](c1cccc(F)c1F)C(F)(F)F | -2% | 0.42
